{
  "source": "paper PMC4336329",
  "about": "(PLoS ONE, 2015)",
  "note": "Screen size: about 310,000 compounds; about 14,000 (4.5%) showed an effect of 50% or more. The effect is printed as a negative number. The list shows a part of the results.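 Further: peak tail current of the secondary pulse compared with the same well before compound.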",
  "data": [
    {"target": "human ether-à-go-go-related gene (hERG) potassium channel (human, UniProt Q12809)", "sequence (Q12809 whole entry, looked up)": "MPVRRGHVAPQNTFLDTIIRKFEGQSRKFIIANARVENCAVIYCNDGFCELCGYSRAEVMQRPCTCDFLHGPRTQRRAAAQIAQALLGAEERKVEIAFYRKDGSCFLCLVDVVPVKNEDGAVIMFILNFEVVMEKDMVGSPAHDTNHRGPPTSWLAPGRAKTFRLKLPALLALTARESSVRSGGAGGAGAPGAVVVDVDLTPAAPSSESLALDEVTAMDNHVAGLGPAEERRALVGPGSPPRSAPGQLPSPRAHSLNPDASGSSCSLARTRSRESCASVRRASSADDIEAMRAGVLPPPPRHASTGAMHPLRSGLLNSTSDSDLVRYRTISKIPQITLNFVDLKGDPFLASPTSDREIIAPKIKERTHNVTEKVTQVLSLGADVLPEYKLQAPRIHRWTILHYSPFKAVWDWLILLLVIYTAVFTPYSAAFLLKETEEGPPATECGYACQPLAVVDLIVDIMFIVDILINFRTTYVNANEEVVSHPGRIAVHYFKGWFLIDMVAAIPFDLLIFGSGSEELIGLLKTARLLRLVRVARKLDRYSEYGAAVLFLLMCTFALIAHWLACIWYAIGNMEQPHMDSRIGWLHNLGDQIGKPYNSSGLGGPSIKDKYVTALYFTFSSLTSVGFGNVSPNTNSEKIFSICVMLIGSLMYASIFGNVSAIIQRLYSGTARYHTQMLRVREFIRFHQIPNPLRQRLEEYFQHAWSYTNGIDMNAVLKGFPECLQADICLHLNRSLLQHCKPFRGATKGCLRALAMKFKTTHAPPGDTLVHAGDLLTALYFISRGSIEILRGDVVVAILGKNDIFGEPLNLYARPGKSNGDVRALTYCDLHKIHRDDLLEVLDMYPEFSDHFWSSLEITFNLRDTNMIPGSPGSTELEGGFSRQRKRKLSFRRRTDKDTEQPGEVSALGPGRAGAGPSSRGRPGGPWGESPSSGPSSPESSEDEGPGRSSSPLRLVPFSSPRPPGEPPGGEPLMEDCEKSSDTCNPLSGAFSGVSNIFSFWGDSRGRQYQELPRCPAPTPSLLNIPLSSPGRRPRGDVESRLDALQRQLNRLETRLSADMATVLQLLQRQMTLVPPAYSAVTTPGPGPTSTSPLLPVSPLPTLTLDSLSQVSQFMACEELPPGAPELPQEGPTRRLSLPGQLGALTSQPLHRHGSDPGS", "test": "primary screen, population patch clamp on CHO cells stably expressing hERG", "units": {"hERG current change (%, negative = inhibition) at 10uM": "%"}, "values": [
      {"compound": "CSCC[C@H](NC(=O)N1CCn2c1nc1ccccc12)C(=O)NCc1ccccc1", "hERG current change (%, negative = inhibition) at 10uM": -31.4},
      {"compound": "O=C(c1cccc2ccccc12)C1CCCN(C(=O)CCN2CCCO2)C1", "note": "(centres unmarked)", "hERG current change (%, negative = inhibition) at 10uM": -5.36},
      {"compound": "COc1ccc(/C=C2/C(=O)N(Cc3ccccc3)N=C2C)cc1", "hERG current change (%, negative = inhibition) at 10uM": 2.7},
      {"compound": "COc1ccc(CCN(Cc2cc3cc(C)ccc3[nH]c2=O)C(=O)N2CCCC2)cc1OC", "hERG current change (%, negative = inhibition) at 10uM": -20.8},
      {"compound": "Br.CN1C(c2ccc(F)cc2)=CS/C1=C(/C#N)c1nnc(N2CCOCC2)n1-c1ccccc1", "hERG current change (%, negative = inhibition) at 10uM": -23.8},
      {"compound": "COc1ccc(NC(=O)C2=C(C)NC(=O)NC2c2cccc(OC)c2OC)c(OC)c1", "note": "(centres unmarked)", "hERG current change (%, negative = inhibition) at 10uM": 22.8},
      {"compound": "O=C(NCc1ccco1)c1ccc2c(c1)N(Cc1ccccc1)CCS2", "hERG current change (%, negative = inhibition) at 10uM": -10.3},
      {"compound": "COc1ccccc1C(=O)NCC(=O)OC(C)C(=O)NC(=O)NC1CCCCC1", "note": "(centres unmarked)", "hERG current change (%, negative = inhibition) at 10uM": 4.94},
      {"compound": "NS(=O)(=O)c1ccc(CNC(=O)c2cc(-c3ccccc3)nc3ccccc23)cc1", "hERG current change (%, negative = inhibition) at 10uM": 4.43},
      {"compound": "COc1ccc(C2=CC3=CC(=O)C(C)(O)C(=O)C3=CO2)cc1", "note": "(centres unmarked)", "hERG current change (%, negative = inhibition) at 10uM": 8.37},
      {"compound": "CC(=O)Nc1ccc(C(=O)CN2CCN(c3ccccc3)CC2)cc1", "hERG current change (%, negative = inhibition) at 10uM": 1.39},
      {"compound": "COc1ccc(NS(=O)(=O)c2ccc3c(c2)CCCN3C(C)=O)cc1", "hERG current change (%, negative = inhibition) at 10uM": -0.512},
      {"compound": "Cc1ccc(S(=O)(=O)N2CCN(C(=O)COC(=O)/C=C/c3ccccc3[N+](=O)[O-])CC2)c(C)c1", "hERG current change (%, negative = inhibition) at 10uM": 4.26},
      {"compound": "Cc1ccsc1C(=O)OCc1nc2ccsc2c(=O)[nH]1", "hERG current change (%, negative = inhibition) at 10uM": -2.66},
      {"compound": "Cc1cc(C)c(NS(=O)(=O)c2ccc(NC(=O)c3cccs3)cc2)c(C)c1", "hERG current change (%, negative = inhibition) at 10uM": 17.4},
      {"compound": "CCCC(c1nnnn1Cc1cccs1)N1CCN(c2nc3ccccc3s2)CC1", "note": "(centres unmarked)", "hERG current change (%, negative = inhibition) at 10uM": -22.4},
      {"compound": "Cc1cc(OC(C)C(=O)Nc2ccc(S(=O)(=O)Nc3onc(C)c3C)cc2)cc(C)c1Cl", "note": "(centres unmarked)", "hERG current change (%, negative = inhibition) at 10uM": -2.69},
      {"compound": "C=CCn1c(NCc2ccc(OC)cc2)nc2ccccc21", "hERG current change (%, negative = inhibition) at 10uM": -17.2},
      {"compound": "COc1ccc(-n2c(SCC#N)nnc2-c2ccc(NS(=O)(=O)c3ccc(C)cc3)cc2)cc1", "hERG current change (%, negative = inhibition) at 10uM": -30.2},
      {"compound": "Cc1nn(-c2ccc(C(=O)NCC(c3ccco3)N3CCCC3)cc2)c(C)c1Cl", "note": "(centres unmarked)", "hERG current change (%, negative = inhibition) at 10uM": -45.7},
      {"compound": "COc1ccc(Cn2c(=O)cc(C)[nH]c2=S)cc1", "hERG current change (%, negative = inhibition) at 10uM": 4.74},
      {"compound": "CC(=NCc1ccc2c(c1)OCO2)c1c(O)[nH]c(=O)[nH]c1=O", "hERG current change (%, negative = inhibition) at 10uM": -4.41},
      {"compound": "Cc1ccc(CC(=O)Nc2cc(C)on2)cc1", "hERG current change (%, negative = inhibition) at 10uM": -3.24}
    ]}
  ]
}
